Out of some 240,000 compounds screened, about 950 (0.4%) were called active. The shares of active, inactive and inconclusive entries below differ from those in the screen.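 Rule for the calls: active = lipid droplet intensity inhibited by at least 50%, with more than 500 cells counted; inconclusive = wells with under 300 cells, treated as cytotoxic; inactive = the rest.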
Test: inhibitors of hepatocyte lipid droplet formation, primary screen, imaging, high-throughput imaging, BODIPY stain (AID 1656)
Conditions: AML12 mouse hepatocytes, oleate lipid droplets, at 6.5 µM, stronger effect = higher value
Method in brief: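 Material – AML12 mouse liver cells · Also added – oleate loading, 100 µM · Compound dosing – 6.5 µM single-point dosing · Times – overnight treatment with compound plus oleate · Measured by – fluorescence imaging, 20x objective, two fields per well · Read-out – percent inhibition of filter-corrected integrated lipid droplet intensity per well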

SMILES | inhibition
COc1ccc(/C=C/C(=O)Nc2cc(=O)n(C)c(=O)n2C)cc1 | inconclusive: 121%
COC(=O)c1[nH]c2c(c1C)C(=O)CC(c1cccs1)C2 (configuration not stated) | inconclusive: -167%
Nc1nc(-c2ccccc2)cc(N2CCCCC2)n1 | inconclusive: -133%
Cc1cc(C)cc(C(=O)N2CC(=O)Nc3ccccc32)c1 | inconclusive: -191%
Cc1ccc(S(=O)(=O)Oc2ccc3ccc(O)cc3c2)cc1 | inactive: -2.9%
CCOc1cc(/C=N\Nc2nc(Nc3ccccc3)nc(N3CCOCC3)n2)ccc1OC(=O)c1ccco1 | active: 132%
CC(C)NC(=S)N1CCN(S(=O)(=O)c2cccc(C(F)(F)F)c2)CC1 | inconclusive: -4.2%
Cc1cc(Br)cc(C)c1NC(=O)c1ccc(C#N)cc1F | inconclusive: -194%
Cc1c(/C(O)=C2\C(=O)C(=O)N(CCN(C)C)C2c2ccccc2)cnn1-c1ccccc1 (configuration not stated) | inactive: 0.2%
Cc1ccc(S(=O)(=O)NCC(=O)OCc2nnc(-c3ccccc3)o2)cc1 | inconclusive: 114%
CC(/C=N/NC(=O)c1cc(-c2ccc(Cl)cc2)nc2ccccc12)=C\c1ccco1 | inconclusive: -80.5%
CCOC(=O)CN=C/C(C(=O)Nc1nccs1)=C(/C)O | inconclusive: -75.5%
CC(=O)c1ccc(Nc2cc(C)nc3c(C)cccc23)cc1 | inconclusive: -184%
Cc1ccc(NC(=O)/C=C/c2ccco2)nc1 | inconclusive: -111%
COCCOC(=O)c1[nH]c2c(c1C)C(=O)CC(c1cccs1)C2 (configuration not stated) | inconclusive: -205%
CN(C)c1ccc(/C=N/OC(=O)Nc2ccccc2Cl)cc1 | inconclusive: -67%
Cc1ccc(N=Nc2ccc3ccccc3c2O)cc1 | active: 82.1%
Cc1ccc(C(=O)c2cc([N+](=O)[O-])ccc2N2CCCCC2)cc1C | inconclusive: -115%
CCC(=NCCc1c(C)[nH]c2ccc(C)cc12)C1=C(O)CC(c2ccccc2)CC1=O (configuration not stated) | inconclusive: -156%

SMILES | inhibition
COc1ccc(/C=C(\NC(=O)c2ccc(C)cc2)C(=O)NCCN2CCOCC2)cc1 | inconclusive: 76.5%
COc1cc(C2C(C#N)=C(N)Oc3cc4c(cc32)OCO4)cc(OC)c1OC (configuration not stated) | inconclusive: -129%
Cc1ccc(CNC(=O)c2ccc3nc4[nH]c5ccccc5c4nc3c2)cc1 | active: 55%
COc1ccc(S(=O)(=O)N2Cc3ccccc3CC2C(=O)O)cc1 (configuration not stated) | inconclusive: 109%
C/C(=N\Nc1ccc2nncn2n1)c1ccco1 | inconclusive: 136%
O=C(Nc1nc(-c2ccccc2)cs1)C1CCCCN1S(=O)(=O)c1ccc(Cl)cc1 (configuration not stated) | active: 61.9%
Cc1cc(C)n(-c2nc(N(c3ccccc3)c3ccccc3)nc(-n3nc(C)cc3C)n2)n1 | active: 57.3%
Fc1ccc(Br)cc1C1C=C(c2ccc(Br)s2)Nc2ncnn21 (configuration not stated) | inconclusive: -120%
N#CC1=C(N)OC2=C(CCc3ccccc32)C1c1ccccc1 (configuration not stated) | active: 101%
O=C(NCc1ccc2c(c1)OCO2)C1CCN(S(=O)(=O)c2ccc(F)cc2)CC1 | inconclusive: 118%
CC(C)Cc1nc2oc3c(NCC(C)O)ncnc3c2c2c1CCCC2 (configuration not stated) | inactive: 10.6%
CC(=O)N1c2ccc(S(=O)(=O)N(C)Cc3ccco3)cc2CC1C (configuration not stated) | inconclusive: 119%
O=C(N/N=C/c1cn(-c2ccccc2)nc1-c1cc2ccccc2o1)c1ccccc1Br | active: 102%
Cc1cccc(N(C(=O)c2nsc(Cl)c2Cl)C(C(=O)NC2CCCC2)c2ccc(O)cc2)c1C (configuration not stated) | inconclusive: -36.4%
Cc1ccc2c(C(=O)CNc3nncs3)c(C)[nH]c2c1 | inactive: -0.4%
O=Cc1ccc(OC(=O)Cc2ccc(F)cc2)cc1 | inactive: -3%
Cc1ccc(NC(=O)NCc2cccnc2)cc1 | inconclusive: 117%
Cc1ccccc1N1CCN(C(=S)c2ccc(-c3ccc([N+](=O)[O-])cc3)o2)CC1 | active: 85.9%
O=C(Nc1ccccc1)C1=C[C@@H](C2CCCCC2)C[C@@H](OCc2ccc(CO)cc2)O1 | active: 53.4%

SMILES | inhibition
CC(=O)n1c2c(c3ccccc31)OC(N)=C(C#N)C2c1cccc(Cl)c1Cl (configuration not stated) | inactive: 0%
O=C(OCCN1C(=O)c2cccc3c(N4CCOCC4)ccc(c23)C1=O)c1ccc(Cl)cc1Cl | inconclusive: -125%
CSc1ccc(NC(=O)N2CCC(C(=O)c3ccc(F)cc3)CC2)cc1 | active: 70.7%
CS(=O)(=O)N(CC(=O)Nc1ccc(S(=O)(=O)N2CCCC2)cc1)c1ccccc1 | inactive: 0.9%
CCN1C(=O)/C(=C2\C=Cc3cc(C)ccc3N2CC)OC1=S | active: 67.7%
CCC1=Nc2cc(C(=O)NCc3ccco3)ccc2Sc2ccc(Cl)cc21 | inconclusive: -79.6%
CCCCOc1ccccc1NC(=O)c1ccc(=O)[nH]c1 | inconclusive: 114%
CCOc1ccc(S(=O)(=O)N/N=C(\C)c2ccc(OC)cc2OC)cc1 | inactive: 10.5%
O=C(COc1ccc(C(=O)c2ccccc2)cc1)NCc1ccc(F)cc1 | inconclusive: -124%
COc1ccc(NC(=O)c2ccc(NC(=O)c3ccco3)cc2)c(OC)c1 | inactive: -9.8%
COc1ccc(N=Nc2nc(-c3ccccc3)c(-c3ccccc3)[nH]2)cc1 | active: 99.8%
Cc1cccc(Nc2nc(N)nc(CCl)n2)c1C | inactive: 2.1%
COc1ccc(CC(=O)N2CCC(Nc3nc4ccccc4n3Cc3ccc(F)cc3)CC2)cc1 | inactive: -39.8%
Cc1ccc(C(=O)N2CCN=C2SCc2ccc([N+](=O)[O-])cc2)cc1 | inactive: 10.2%
CC1=Nc2cc(C(=O)NCc3ccco3)ccc2Sc2ccc(C)cc21 | inconclusive: -196%
CC1=C([N+](=O)[O-])C(c2cccc(Br)c2)C2=C(N1)c1ccccc1C2=O (configuration not stated) | inconclusive: -128%
Cc1nc(NC(=O)/C=C/c2ccccc2)n[nH]1 | inconclusive: -11.5%
C#CCOc1ccc(C2C3=C(COC3=O)Nc3cc4c(cc32)OCO4)cc1OC (configuration not stated) | inconclusive: -295%
Cc1ccc(/C=N/NC(=O)COc2ccccc2-c2ccccc2)cc1 | inconclusive: 115%
